Laboratory results published in PubChem BioAssay AID504339 (National Center for Advancing Translational Sciences (NCATS), 2011).
In all, about 390,000 compounds went through this assay and about 17,000 (4.4%) were called active. Inconclusive means that the source gave no clear call. Such entries were picked first, then a sample of the others. Calls come from the whole dose curve; as a rule, active = well fitted inhibition curve with a large enough effect; inconclusive = small, poorly fitted or top-dose-only effect; inactive = no such curve, though single readings can be large or run the other way. Where the call is inconclusive, the potency comes from a doubtful curve fit.

The compounds below were run against Lysine-specific demethylase 4A (Homo sapiens) (UniProt O75164) (assay: qHTS Assay for Inhibitors of JMJD2A-Tudor Domain). Details: AlphaScreen JMJD2A-Tudor / H3K4me3 peptide binding; series mostly up to 114 µM.
Chain of UniProt O75164 (O75164 whole entry, looked up, the tested form may be a part): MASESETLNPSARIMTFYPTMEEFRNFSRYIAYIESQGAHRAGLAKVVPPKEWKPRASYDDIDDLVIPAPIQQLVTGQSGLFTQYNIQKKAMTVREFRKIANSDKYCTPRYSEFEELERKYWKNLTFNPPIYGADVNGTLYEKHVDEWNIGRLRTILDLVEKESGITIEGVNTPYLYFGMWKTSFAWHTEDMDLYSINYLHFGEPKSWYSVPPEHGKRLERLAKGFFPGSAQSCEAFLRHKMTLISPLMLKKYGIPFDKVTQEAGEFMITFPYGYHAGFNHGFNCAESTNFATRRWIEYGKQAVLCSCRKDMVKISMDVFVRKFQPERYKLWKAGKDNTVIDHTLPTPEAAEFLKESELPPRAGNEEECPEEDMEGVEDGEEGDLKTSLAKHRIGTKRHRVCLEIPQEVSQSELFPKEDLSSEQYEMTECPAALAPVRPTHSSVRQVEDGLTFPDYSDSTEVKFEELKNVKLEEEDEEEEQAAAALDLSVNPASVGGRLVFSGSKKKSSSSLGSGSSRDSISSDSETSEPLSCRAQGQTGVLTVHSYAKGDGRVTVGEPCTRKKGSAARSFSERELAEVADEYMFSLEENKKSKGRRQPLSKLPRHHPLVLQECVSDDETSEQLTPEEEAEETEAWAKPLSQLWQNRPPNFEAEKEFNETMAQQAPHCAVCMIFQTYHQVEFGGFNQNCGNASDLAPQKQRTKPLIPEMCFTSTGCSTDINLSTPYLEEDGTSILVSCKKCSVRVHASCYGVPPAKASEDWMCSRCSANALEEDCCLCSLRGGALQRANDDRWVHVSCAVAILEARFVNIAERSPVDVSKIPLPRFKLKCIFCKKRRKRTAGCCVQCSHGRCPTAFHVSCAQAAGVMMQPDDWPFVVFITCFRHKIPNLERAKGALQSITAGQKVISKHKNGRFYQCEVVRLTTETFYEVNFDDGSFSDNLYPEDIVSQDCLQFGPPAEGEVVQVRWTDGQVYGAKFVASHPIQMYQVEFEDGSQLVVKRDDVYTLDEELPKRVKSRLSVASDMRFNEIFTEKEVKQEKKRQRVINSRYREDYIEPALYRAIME
Note: nearly all actives have a fitted effect of over 50% in size.
Potency is the fitted concentration of half-maximal effect; tags give direction and shape of the fitted curve.

Structure (SMILES) | Potency
O=C(CC(=O)c1ccccc1)CC(O)(C=Cc1ccccc1)c1ccccc1 (configuration not stated) | inactive
COc1ccc2nc(C)cc(SCC(=O)N/N=C/c3ccccc3)c2c1 | inactive
COc1cc(/C=C/c2[nH]c(=O)[nH]c(=O)c2[N+](=O)[O-])cc([N+](=O)[O-])c1O | inconclusive: 79.4 µM [inhibitor, partial curve]
C=CCN(CC=C)C(=S)NC(=O)/C=C/c1ccccc1 | active: 22.4 µM
Cc1ccc(-c2csc(NC(=O)CSc3nc4ccccc4c(=O)n3CCCN(C)C)n2)cc1 | active: 44.7 µM
CSCCC(NS(=O)(=O)c1cc(C(=O)O)ccc1Cl)C(=O)O (configuration not stated) | inconclusive: 79.4 µM [inhibitor, partial curve]
Cc1ccc(/C(N)=N/OC(=O)N2c3ccccc3Sc3ccccc32)cc1 | inconclusive: 56.2 µM [inhibitor, partial curve]
COC(=O)[C@H](CCSC)NC(=O)NC1CCN(Cc2ccccc2)CC1 | inactive
O=C(Nc1ccccc1)C1CCN(S(=O)(=O)c2ccc3[nH]c4c(c3c2)CCCCC4)CC1 | inconclusive: 50.1 µM [inhibitor, partial curve]
Cc1ccc(-c2cn(-c3ccccc3F)c(=S)[nH]2)cc1 | inconclusive: 39.8 µM [inhibitor, partial curve]
CC[n+]1c(/C=C/c2ccc(OC(C)=O)c(OC)c2)ccc2ccccc21 | inconclusive: 25.1 µM [inhibitor, partial curve]
S=c1[nH]nc(-c2ccccn2)n1/N=C/c1cccc(Cl)c1 | active: 20 µM
COCCn1c(C)cc(/C=C2/NC(=O)N(Cc3ccc(C)cc3)C2=O)c1C | inactive
CCCCCCCCCn1c2c(c(=N)c3c1CCC3)CCC2 | inconclusive: 31.6 µM [inhibitor, partial curve]
COc1ccccc1-n1c(-c2ccc(Cl)cc2)c[nH]c1=S | inconclusive: 35.5 µM [inhibitor, partial curve]
CC[C@H]1C=C[C@@H](C(C(=O)OC)C(=O)OC)CN1C(C)=O | inconclusive: 50.1 µM [inhibitor, partial curve]
COc1ccc(OC)c(CCNC(=O)c2c3c(nc4ccccc24)C(=O)N(C2CCCCC2)C3)c1 | inconclusive: 56.2 µM [inhibitor, partial curve, poor fit]
CCN(CC)c1ccc(/C=C/C(=O)c2ccc(Br)cc2)cc1 | inactive
CCOc1ccc(-c2cc(NC(=O)c3c(F)cccc3F)c(C(=O)O)s2)cc1 | inconclusive: 35.5 µM [inhibitor, partial curve]
O=C(Nc1ccccc1C(=O)N1CCOCC1)c1ccco1 | inconclusive: 70.8 µM [inhibitor, single point]
Cc1cc(SCC(=O)c2ccc(Cl)cc2)nc(=O)[nH]1 | inconclusive: 11.2 µM [inhibitor, full curve, poor fit]
COc1cc(NC(=O)Nc2ccccc2)c(OC)cc1NC(=O)CN1CCCCC1 | active: 39.8 µM
C/C(=C\c1cc2ccccc2o1)C1Nc2cccc3cccc(c23)N1 | inconclusive: 39.8 µM [inhibitor, partial curve]
COC(=O)/C=C/COc1ccccc1[N+](=O)[O-] | inconclusive: 12.6 µM [inhibitor, full curve]

Structure (SMILES) | Potency
CC(C)Cn1c(-c2cc([N+](=O)[O-])ccc2Cl)nc2c1c(=O)[nH]c(=O)n2Cc1ccccc1 | inconclusive: 28.2 µM [inhibitor, single point]
O=C(OCc1ccc(Br)cc1)c1cnc(Cl)c(Cl)c1 | active: 70.8 µM
CCOC(=O)/C(C#N)=C\c1ccc(OC)c(OC)c1 | inactive
CCCCCSc1nnc(-c2cc(Br)ccc2N)c(=O)[nH]1 | inactive
Cc1ccccc1C(=O)OCCN(C)Cc1ccccc1 | inactive
COc1cc2c(cc1OC)/C(=C/C(=O)c1ccccc1)NCC2 | inconclusive: 44.7 µM [inhibitor, partial curve]
Cc1ccc(CCNC(=O)Cn2nc(C)c3c(C)n(-c4ccc(C)cc4)nc3c2=O)cc1 | inactive
Cc1[nH]n(C)c(=O)c1N=Nc1ccc(S(C)(=O)=O)cc1 | inconclusive: 89.1 µM [inhibitor, single point]
O=C(c1ccccc1)c1cnc2ccc(Cl)cc2c1N1CCOCC1 | inconclusive: 63.1 µM [inhibitor, partial curve, poor fit]
OCc1ccnc2c(O)cccc12 | active: 12.6 µM
O=C(CSc1ccccc1C(=O)O)NC12CC3CC(CC(C3)C1)C2 | inconclusive: 22.4 µM [inhibitor, full curve, poor fit]
COc1cc(NCCC(=O)c2cccs2)c(OC)cc1Cl | active: 39.8 µM
CCN(CC(=O)NCc1ccc(F)cc1)C(=O)CN1CCN(c2ccc(OC)cc2)CC1 | active: 0.891 µM
O=C1NC(=O)C(c2cn(-c3ccccc3)nc2-c2ccc(F)cc2)N1 (configuration not stated) | inconclusive: 3.98 µM [inhibitor, single point]
COc1ccc(Cn2c(=O)[nH]c3cc(C(=O)Nc4ccc(N5CCN(C)CC5)cc4)ccc32)cc1 | inconclusive: 50.1 µM [inhibitor, partial curve]
COc1cc(-c2noc(C)c2/C=C/c2ccc(C(=O)O)cc2)cc(OC)c1OC | active: 70.8 µM
COc1ccc(S(=O)(=O)N(CC(=O)NC2CC3CCC2C3)c2ccccc2OC)cc1 (configuration not stated) | inconclusive: 25.1 µM [inhibitor, single point]
Cc1nnc(SCC(=O)Nc2sccc2C(N)=O)s1 | inactive
CCc1ccc(OCC(=O)NNC(=S)NC(=O)C2CC2)c(Br)c1 | inconclusive: 89.1 µM [inhibitor, partial curve, poor fit]
Cc1oc2c(c1C(=O)c1ccc(Cl)cc1)C(=O)C(=O)c1ccccc1-2 | inconclusive: 11.2 µM [inhibitor, full curve]
S=c1nc[nH]c2c1ncn2C1CCCC1 | inconclusive: 22.4 µM [inhibitor, partial curve, poor fit]
Cn1ncc(C(=O)N2CCN(c3ccccc3)CC2)c1C1CCN(C(=O)OC(C)(C)C)CC1 | inactive
O=C(COC(=O)c1ccc(Cl)s1)c1cc2ccccc2o1 | inactive
CSC(=Nc1ccccc1)C(C#N)c1nc2ccccc2[nH]1 (configuration not stated) | inconclusive: 15.8 µM [inhibitor, full curve, poor fit]

Structure (SMILES) | Potency
COCCCNC(=O)c1ccc2c(=O)n(C3CCCC3)c(=S)[nH]c2c1 | inactive
Oc1ccc(-c2n[nH]c(=S)n2Cc2ccccc2)cc1 | active: 31.6 µM
CN1CCc2c(sc(/N=C/c3c[nH]c4ccccc34)c2C#N)C1 | inconclusive: 56.2 µM [inhibitor, partial curve]
CCOc1cc(-c2nc(-c3ccccc3)c(-c3cc([N+](=O)[O-])ccc3C)[nH]2)ccc1O | inconclusive: 14.1 µM [inhibitor, full curve]
CN1C(=S)N(c2ccccc2)C(=O)/C1=C/c1cccs1 | inactive
CC1CCc2[nH]c3ccc(C(=O)N(C)CC(=O)Nc4ccc(F)cc4)cc3c2C1 (configuration not stated) | inconclusive: 44.7 µM [inhibitor, partial curve]
CCNC(=S)N/N=C/c1cn(Cc2ccc(F)cc2)c2ccccc12 | inconclusive: 50.1 µM [inhibitor, partial curve]
O=C(O)C1C2C=CC(O2)C1C(=O)Nc1ccccc1C(F)(F)F (configuration not stated) | active: 79.4 µM
CC(C)c1onc(C(=O)N2CCN(c3ccc(F)cc3)CC2)c1[N+](=O)[O-] | inconclusive: 56.2 µM [inhibitor, partial curve, poor fit]
Cc1nc(C#N)c(N/N=C/c2cccc(Cl)c2)o1 | inconclusive: 89.1 µM [inhibitor, partial curve]
CC(=O)N[C@H]1[C@H](Oc2ccc3c(c2)CCC2C3CC[C@]3(C)C(=O)CCC23)O[C@H](CO)[C@@H](O)[C@@H]1O (some centres not stated) | inactive
CC1CN(c2oc(COc3ccc(Cl)cc3Cl)nc2C#N)CC(C)O1 (configuration not stated) | inconclusive: 20 µM [inhibitor, full curve]
Cc1cc(C)cc(OCC(=O)N/N=C/c2ccccn2)c1 | inconclusive: 44.7 µM [inhibitor, partial curve]
Cc1nc2sc(-c3ccccc3)cc2c(=O)n1N | inactive
O=C(CCc1[nH]c2ccccc2c1Sc1ccccc1)N(CCO)CCO | active: 79.4 µM
Cc1c(Cl)cccc1NC(=O)N1CCN(Cc2cc(=O)n3nc(-c4ccccc4F)sc3n2)CC1 | inactive
COc1cccc(C(=O)NCc2ccc3c(c2)cc(C)n3C)c1 | inconclusive: 56.2 µM [inhibitor, partial curve]
N#Cc1ccccc1S(=O)(=O)N1CCN(C(=O)c2cc3c(s2)CCC3)CC1 | inconclusive: 14.1 µM [inhibitor, full curve]
CCN(CC)c1ccc(NC(=O)COC(=O)CCC(=O)c2cccs2)cc1 | inconclusive: 17.8 µM [inhibitor, full curve]
O=C(O)Cc1ccc(NC(=O)COc2ccc3ccccc3c2)cc1 | inactive
CCCCn1c(N)c(N(CC(C)C)C(=O)C2CCC2)c(=O)[nH]c1=O | inactive
Cc1n[nH]c2c([N+](=O)[O-])c(=O)[nH]c(=O)n12 | inconclusive: 31.6 µM [inhibitor, full curve]
COc1cccc(/C=C2/SC(=S)N(CCCC(=O)Nc3ccc(O)cc3)C2=O)c1 | inconclusive: 20 µM [inhibitor, full curve]
Cc1ccc(Cn2c(C(C)Nc3nc(-c4ccc(C)cc4)cs3)nc3cc(Cl)c(Cl)cc32)cc1 (configuration not stated) | inconclusive: 89.1 µM [inhibitor, single point]
